The record followed here is PubChem BioAssay (NCI).

The experiment concerns NCI-H322M lung. In words: DTP human tumour cell line panel, 48 h.

The structures appear in SMILES notation.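 The compound was tested at five concentrations on cells cultured in 96-well plates, with a 48-hour exposure period. GI50 marks 50% less growth. TGI denotes the concentration required for complete inhibition of growth.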

One may read the GI50 as the concentration that inhibits growth by half. What is called TGI is the concentration at which net growth stops. Read a high TGI as lower sensitivity of the cells. Consider `CCNC(=O)Oc1ccc(/C(=C(/C)c2ccccc2)c2ccc(OCCN3CCCCCC3)cc2)cc1`, for which the GI50 was 4.25 µM and the TGI was 15.6 µM.
As for `C=C1C(=O)O[C@@H]2C[C@@H](C)/C=C\C(=O)[C@](C)(OC(C)=O)C[C@H](OC(=O)/C(C)=C\C)[C@@H]12`, the GI50 was 16.3 µM and the TGI was > 25 µM.
Consider `CCc1nn2c(C)cc(C)nc2c1Cc1ccc(/C=C/CN2CCN(CCOCCOCCN3CCN(C/C=C/c4ccc(Cc5c(CC)nn6c(C)cc(C)nc56)cc4)CC3)CC2)cc1`, for which the GI50 is 2.66 µM and the TGI worked out at 7.54 µM.
